Laboratory results published in the BET-seq Pho4 binding data (Le et al. 2018).
This is one part of the list. These are noisy estimates, calculated here from bound and input reads.

Target: T1, Pho4 (S. cerevisiae) (UniProt P07270)
T1 sequence: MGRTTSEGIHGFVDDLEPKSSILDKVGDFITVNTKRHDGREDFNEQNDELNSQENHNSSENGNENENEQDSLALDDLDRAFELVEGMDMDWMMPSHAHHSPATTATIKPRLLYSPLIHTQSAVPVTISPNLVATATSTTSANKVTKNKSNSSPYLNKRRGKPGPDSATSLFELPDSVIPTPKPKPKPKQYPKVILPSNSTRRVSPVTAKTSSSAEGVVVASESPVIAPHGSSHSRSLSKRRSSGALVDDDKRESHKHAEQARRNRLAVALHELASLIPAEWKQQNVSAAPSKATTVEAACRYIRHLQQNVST
Assay: relative binding free energy (BET-seq); higher = weaker binding
Details: reference: library average

Sequence | relative binding free energy
TTCTTCACGTGTAAAT | 0.32 kcal/mol
ATACTCACGTGTGGAT | 0.35 kcal/mol
TAAGTCACGTGTAATA | 0.15 kcal/mol
AGTATCACGTGCGGGG | 0.22 kcal/mol
TGATTCACGTGAAGTA | 0.32 kcal/mol
AGATTCACGTGATTTG | 0.32 kcal/mol
CGTTACACGTGTTAAT | 0.27 kcal/mol
GAGTTCACGTGGCTCG | 0.47 kcal/mol
TTCTACACGTGAGTTA | 0.38 kcal/mol
GAGGTCACGTGATTGA | 0.37 kcal/mol
TTGTGCACGTGTGCGG | -0.16 kcal/mol
ATCGACACGTGTTGGT | 0.05 kcal/mol
GATTACACGTGATGTG | 0.22 kcal/mol
AAGCGCACGTGAGTTG | 0.21 kcal/mol
TGGAGCACGTGGCTGA | -0.12 kcal/mol
TCTAGCACGTGCGGGT | -0.02 kcal/mol
AGGTTCACGTGAGCGT | 0.35 kcal/mol
AAATTCACGTGATGTT | 0.41 kcal/mol
TGTGGCACGTGTTAAG | -0.03 kcal/mol
TTGGGCACGTGTGAAG | -0.01 kcal/mol
TTGGACACGTGTAGGC | 0.09 kcal/mol
ACTTTCACGTGCGTGT | 0.2 kcal/mol
TGGCGCACGTGTTTGG | -0.06 kcal/mol

Sequence | relative binding free energy
CGGGTCACGTGGAGCT | -0.01 kcal/mol
TTCAACACGTGAGGTA | 0.25 kcal/mol
TGGGCCACGTGAAGGC | 0.18 kcal/mol
TGTCTCACGTGCGGTA | 0.17 kcal/mol
ATTGTCACGTGGATGG | -0.03 kcal/mol
GGGATCACGTGTTAGA | 0.33 kcal/mol
CTTTGCACGTGTGTAT | 0.07 kcal/mol
CTAGGCACGTGGGGGT | -0.19 kcal/mol
TTCATCACGTGAAGGT | 0.23 kcal/mol
GGGGTCACGTGTCCTT | 0.12 kcal/mol
GGTATCACGTGAAGGA | 0.4 kcal/mol
TGGGACACGTGTCATG | 0.01 kcal/mol
GAGGCCACGTGGTTTG | -0.02 kcal/mol
CGTGGCACGTGGGGCG | -0.26 kcal/mol
TTGTTCACGTGCTCTA | 0.21 kcal/mol
AGAGGCACGTGTAGAA | 0.02 kcal/mol
GTGAGCACGTGATGGT | 0.04 kcal/mol
GAGTGCACGTGTTCAG | 0.09 kcal/mol
TGGTACACGTGGTGAG | -0.07 kcal/mol
TGTATCACGTGGGATC | 0.06 kcal/mol
TGAATCACGTGGGGAC | 0.09 kcal/mol
GGTGGCACGTGCTTTT | -0.06 kcal/mol
CGCAGCACGTGGGATG | -0.14 kcal/mol

Sequence | relative binding free energy
GGCGGCACGTGCTGCG | -0.08 kcal/mol
TATGGCACGTGTATGG | 0.09 kcal/mol
GGTCTCACGTGCGAGT | 0.3 kcal/mol
GTAAGCACGTGGTATT | -0.07 kcal/mol
TGGGCCACGTGGCGGG | -0.32 kcal/mol
TTCGGCACGTGCAGTG | -0.07 kcal/mol
AGCTGCACGTGTGGGA | 0.07 kcal/mol
AGGCTCACGTGGTGGA | 0.17 kcal/mol
AGGCACACGTGGAAGT | 0.22 kcal/mol
AAGAGCACGTGGAGTG | -0.14 kcal/mol
AAGAGCACGTGAAGTG | 0.21 kcal/mol
TCTGTCACGTGAGGTG | 0.28 kcal/mol
TTGTTCACGTGCAAGA | 0.28 kcal/mol
CGGAGCACGTGTGGAT | -0.08 kcal/mol
AATAGCACGTGGTTTT | 0 kcal/mol
AGTGGCACGTGGGGCC | -0.26 kcal/mol
CGTTACACGTGTGATG | -0.01 kcal/mol
CAGGGCACGTGGTTCT | -0.03 kcal/mol
GTTGTCACGTGTTCGA | 0.06 kcal/mol
ATCGTCACGTGATTTT | 0.19 kcal/mol
TTAATCACGTGTAGTT | 0.15 kcal/mol
GAGTGCACGTGCGTGT | -0.04 kcal/mol
TAATGCACGTGTTTTT | 0.03 kcal/mol

Sequence | relative binding free energy
TTGTCCACGTGTGGTA | 0.03 kcal/mol
ACGGTCACGTGGGCGT | -0.21 kcal/mol
CTTGGCACGTGCGTGA | -0.2 kcal/mol
CTTGTCACGTGTCGTA | 0.13 kcal/mol
GGGGACACGTGGCGGC | -0.01 kcal/mol
GTGGTCACGTGAGGTG | 0.25 kcal/mol
AGGGTCACGTGAAATA | 0.22 kcal/mol
CGGCACACGTGGGGTA | -0.12 kcal/mol
GGAAGCACGTGAGTAG | 0.15 kcal/mol
GGCTTCACGTGACGGT | 0.31 kcal/mol
GTTTGCACGTGTATAC | 0.01 kcal/mol
TAGGGCACGTGGAGTG | -0.12 kcal/mol
TGTAACACGTGGGTCT | -0.05 kcal/mol
CGGTTCACGTGTGTAT | 0.16 kcal/mol
GTTGGCACGTGCATCG | -0.18 kcal/mol
AAGTGCACGTGGTGTT | -0.11 kcal/mol
ATAGTCACGTGATGAA | 0.18 kcal/mol
AGTTACACGTGGGATC | 0.06 kcal/mol
GAGGGCACGTGAGTTC | 0.23 kcal/mol
AATTACACGTGTTGTT | 0.11 kcal/mol
GGAATCACGTGTAAGG | 0.19 kcal/mol
ATAGTCACGTGTGAAG | 0.12 kcal/mol
CAGTTCACGTGGGTTA | 0.2 kcal/mol

Sequence | relative binding free energy
TTTTACACGTGTCAGT | 0.13 kcal/mol
ATTAGCACGTGTTTCT | 0.07 kcal/mol
ATTAGCACGTGGTCTG | -0.26 kcal/mol
TGGCTCACGTGAGGGT | 0.28 kcal/mol
GATCGCACGTGGGGGA | -0.24 kcal/mol
TGAGTCACGTGGACTG | 0.08 kcal/mol
GGTTCCACGTGTGGGA | 0.11 kcal/mol
TATTACACGTGTTTTC | 0.09 kcal/mol
ATTGGCACGTGCTGAG | -0.15 kcal/mol
ATGTCCACGTGAGGTG | 0.1 kcal/mol
CATGGCACGTGAGGGA | -0.02 kcal/mol
TTTGACACGTGGGTCA | -0.15 kcal/mol
CTACGCACGTGTTGGT | -0.15 kcal/mol
AAGGTCACGTGGCTTT | 0.19 kcal/mol
CGCTGCACGTGGGGGG | -0.23 kcal/mol
ATGGACACGTGAGTGC | 0.16 kcal/mol
AGTAGCACGTGGGTGA | -0.26 kcal/mol
ATTCTCACGTGTAGTG | 0.36 kcal/mol
AGGTACACGTGAAAGT | 0.23 kcal/mol
GGAGGCACGTGGATTT | -0.04 kcal/mol
ACGGGCACGTGGGTTT | -0.21 kcal/mol
AGTTTCACGTGCGTGG | 0.16 kcal/mol
GGGGTCACGTGAACGT | 0.24 kcal/mol
